This passage reports binding signal results from paper PMC10668032.

The other results are listed elsewhere or left out. At the low end of the ranking, values are background and their order means little.

This assay concerns the target SIX1-Q177R homeodomain (UniProt Q15475). Description: universal protein binding microarray. Particulars: Universal all-10-mer PBM (8x60K, AMADID 030236), 300 nM GST-tagged protein, Alexa Fluor 488 anti-GST; buffer, salt, pH and temperature not stated; high values mean tight binding; most listed sequences are background and not binding sites; double strand, one strand shown.
On to ATACGCCC, for which the binding signal was found to be 0.092 E-score.

Regarding ACTTATTC, the binding signal is -0.052 E-score.

On to GCCAACTA, for which the binding signal was -0.00775 E-score.

With CTGTTCTC, the binding signal is -0.251 E-score.

As to CCGTGCGA, the binding signal is 0.155 E-score.

Turning to CAGGTACA, the binding signal was 0.187 E-score.

For the sequence ATATGTAC, the binding signal was -0.0592 E-score.

TGGCTGAA: the binding signal was -0.112 E-score.

With CACGCGAG, the binding signal amounted to 0.27 E-score.

As to CAGCTCTA, the binding signal is -0.187 E-score.

Consider CGGCGGCC, for which the binding signal was -0.293 E-score.

In the case of AGCGAATG, the binding signal is -0.134 E-score.

Regarding AACTCTGA, the binding signal is -0.0863 E-score.

For the sequence CATTCACA, the binding signal amounted to 0.0603 E-score.

As to ATCTTAGC, the binding signal is -0.164 E-score.

Consider ACCCTCGA, for which the binding signal amounted to 0.155 E-score.

With CGAAGGCC, the binding signal was -0.263 E-score.

Take CACTTCTA: the binding signal was 0.209 E-score.

Turning to CTGACTCC, the binding signal was 0.233 E-score.

As for CGCAGCCC, the binding signal was -0.0789 E-score.

With CGAGTTGC, the binding signal worked out at 0.051 E-score.

With ACTGGCTA, the binding signal is -0.155 E-score.

As for ACAGAGCA, the binding signal was 0.0318 E-score.

As to ACTAACAC, the binding signal turned out to be 0.427 E-score.

CCTGTACG: the binding signal was -0.113 E-score.

For TAAATAAA, the binding signal was -0.0663 E-score.

For AGCTAACT, the binding signal is -0.147 E-score.

For the sequence GCTTTTAA, the binding signal was -0.277 E-score.

ATCATGCG: the binding signal came to 0.0136 E-score.

In the case of GCACACCC, the binding signal came out at 0.396 E-score.

In the case of AATGTCGC, the binding signal is 0.011 E-score.

As to TCATGTCA, the binding signal was -0.0841 E-score.

Consider AACCCGTG, for which the binding signal is 0.23 E-score.

As for GTATTCGA, the binding signal turned out to be 0.0412 E-score.

Turning to AACCTGGG, the binding signal was determined as 0.0382 E-score.

For the sequence ACACGTTC, the binding signal stood at 0.276 E-score.

For the sequence ACAGCTGG, the binding signal is -0.236 E-score.

CAGCTTAA: the binding signal was -0.13 E-score.

Regarding AATGTAAA, the binding signal is -0.171 E-score.

As to CACGCGCG, the binding signal was 0.0814 E-score.

For the sequence CGACTGGC, the binding signal is -0.0766 E-score.

For the sequence CCTGCCTA, the binding signal was -0.0787 E-score.

As for GAGTTTTA, the binding signal is -0.189 E-score.

As for AAGTAACA, the binding signal came out at 0.146 E-score.

For the sequence CAGGACAC, the binding signal turned out to be 0.423 E-score.

Turning to GACAGGAA, the binding signal is -0.164 E-score.

On to AACATCGC, for which the binding signal is -0.0882 E-score.

Regarding AGCCCTTG, the binding signal was -0.147 E-score.

As to GCTCGCCC, the binding signal was -0.0296 E-score.

Regarding CATTTCGG, the binding signal is -0.232 E-score.

As to CCCGGAGC, the binding signal was 0.00308 E-score.

Take AAACCTAA: the binding signal was -0.244 E-score.

On to TAACTAGA, for which the binding signal turned out to be 0.0854 E-score.

With GGATTGGA, the binding signal came to 0.0345 E-score.

On to CACTAGTG, for which the binding signal worked out at 0.343 E-score.

Regarding ACGGGTCG, the binding signal came out at 0.224 E-score.

For the sequence CTATTATA, the binding signal is -0.161 E-score.

Turning to CACCGGGG, the binding signal is 0.256 E-score.

With CGGCGACG, the binding signal is 0.0171 E-score.

Consider AGTCCCGG, for which the binding signal was -0.119 E-score.

CAGATTGG: the binding signal was -0.00897 E-score.

CTGTGAAC: the binding signal is 0.0971 E-score.

With CCCTTAAA, the binding signal was 0.091 E-score.

For the sequence CTTTCGGA, the binding signal was -0.139 E-score.

On to CAACGTTC, for which the binding signal is -0.172 E-score.

As to AATCTCCC, the binding signal was 0.0343 E-score.

As for CGCGTCTC, the binding signal is 0.039 E-score.

With CATAGGAG, the binding signal was -0.121 E-score.

Turning to ATTGACGA, the binding signal was -0.0182 E-score.

In the case of CCTTGTCC, the binding signal was -0.0305 E-score.

As to CGCCCGGA, the binding signal was 0.00537 E-score.

Take CACCTTCA: the binding signal was determined as 0.241 E-score.

For the sequence AAAGCTGG, the binding signal is -0.241 E-score.

On to ACGCCTCT, for which the binding signal stood at 0.0685 E-score.

Turning to CACGATAC, the binding signal turned out to be 0.335 E-score.

On to ACGCGCAG, for which the binding signal worked out at 0.175 E-score.

Turning to AATGGGCA, the binding signal was -0.122 E-score.

For ATCAGTCG, the binding signal is -0.188 E-score.

As for GCTAGGTA, the binding signal is 0.0331 E-score.

Regarding CATTTAAC, the binding signal is -0.037 E-score.

Turning to CCCCCATC, the binding signal is 0.0764 E-score.

Take CCCTACAA: the binding signal was determined as 0.0828 E-score.

Take ATTGTTTC: the binding signal is -0.17 E-score.

For the sequence GGGCAACA, the binding signal is 0.094 E-score.

For CGTATAAG, the binding signal is -0.125 E-score.

CGGTCGTC: the binding signal was -0.116 E-score.

With CATACGAC, the binding signal is -0.0328 E-score.

With GCACTTCA, the binding signal was 0.0839 E-score.

In the case of CTTGTTGA, the binding signal is -0.00195 E-score.

Consider CGGCTTAA, for which the binding signal was -0.0226 E-score.

Consider CGGTGAAA, for which the binding signal was -0.0361 E-score.

For CTCGTCGC, the binding signal is -0.276 E-score.

Take ACCGGCGG: the binding signal was found to be 0.126 E-score.

Regarding ACCTGAGT, the binding signal is 0.0135 E-score.

Take GGAAATAA: the binding signal was -0.215 E-score.

With ATGATCCA, the binding signal is -0.011 E-score.

For AACGAACC, the binding signal is -0.0406 E-score.

With GGTTGGCA, the binding signal is 0.0237 E-score.

Take AATAATGC: the binding signal came to 0.0393 E-score.

As to CACACTTC, the binding signal was determined as 0.205 E-score.

For the sequence CCGCAGGA, the binding signal was -0.115 E-score.

Regarding GTGTTGTA, the binding signal came out at 0.389 E-score.

In the case of CGCAAGCG, the binding signal was -0.0974 E-score.

In the case of TATTAAGA, the binding signal is -0.0906 E-score.

Consider AACTCCAA, for which the binding signal stood at 0.0589 E-score.

CCACGGAG: the binding signal is 0.102 E-score.

As for ACGAAGCA, the binding signal was -0.0672 E-score.

In the case of ATACAAGA, the binding signal is -0.206 E-score.

Take AAAATTTC: the binding signal was -0.168 E-score.

For the sequence GACATCAC, the binding signal is -0.121 E-score.

As for GGAGAACC, the binding signal was 0.0409 E-score.

With CTCCTGTA, the binding signal is -0.0426 E-score.

Consider ACTGGACC, for which the binding signal was -0.161 E-score.

In the case of CATCGGTC, the binding signal was -0.189 E-score.

Regarding CTGACGCC, the binding signal amounted to 0.185 E-score.

Regarding ACGGTACC, the binding signal is -0.0615 E-score.

For the sequence AACGGCAT, the binding signal is -0.149 E-score.

In the case of AAGTGTGA, the binding signal worked out at 0.188 E-score.

In the case of CGCAGCGC, the binding signal is -0.192 E-score.

With AAGACTGG, the binding signal was 0.0509 E-score.

As to CCGTACCC, the binding signal was 0.158 E-score.

For TAGTCTCA, the binding signal is -0.227 E-score.

Take CTCACTTC: the binding signal was -0.0954 E-score.

For the sequence TAGGGAGA, the binding signal was -0.00983 E-score.

Consider CGTGGAAC, for which the binding signal is -0.119 E-score.

AGTTAATC: the binding signal is -0.0686 E-score.

Take GCAGATAA: the binding signal is -0.125 E-score.

ATGACATC: the binding signal is -0.154 E-score.

For CTAGTTGC, the binding signal is -0.24 E-score.

On to ATTGGAGC, for which the binding signal came to 0.0339 E-score.

In the case of CACATGGC, the binding signal was -0.155 E-score.

In the case of GGTTGATA, the binding signal amounted to 0.0259 E-score.

As to AATGTCCT, the binding signal was -0.0227 E-score.

In the case of TCTTTGAA, the binding signal was -0.262 E-score.

Consider ACGCTCAG, for which the binding signal was found to be 0.143 E-score.

Take AGCAACTA: the binding signal is -0.136 E-score.

Turning to GGCCTCCC, the binding signal was -0.204 E-score.

As to AAATACAA, the binding signal was -0.114 E-score.

For the sequence ACATAGCT, the binding signal is -0.216 E-score.

Turning to ACCTTCGC, the binding signal was -0.0318 E-score.

Regarding AATGTCCG, the binding signal is -0.177 E-score.

On to ACTAATTC, for which the binding signal was -0.0618 E-score.

TTGACCAA: the binding signal was -0.0546 E-score.

As to ATGAAGTA, the binding signal was -0.0128 E-score.

With CTGTCAGA, the binding signal came to 0.0241 E-score.

On to CTATCGAG, for which the binding signal was -0.0352 E-score.

In the case of AGTGAACC, the binding signal was -0.0634 E-score.

Take AATTTCAA: the binding signal is -0.159 E-score.

Turning to TACAGTAA, the binding signal amounted to 0.126 E-score.

As for CCGCCTCG, the binding signal was -0.0193 E-score.

With ACGCAACC, the binding signal amounted to 0.00098 E-score.

CACAATTA: the binding signal was -0.00716 E-score.

Turning to AAGCGCGA, the binding signal amounted to 0.074 E-score.

In the case of AGTAATCA, the binding signal stood at 0.0946 E-score.

On to CCTAGGAA, for which the binding signal is -0.0905 E-score.

Consider CAGTCCAG, for which the binding signal was -0.0569 E-score.

Consider ACCGAGTC, for which the binding signal stood at 0.0476 E-score.

Consider CGTCTCAA, for which the binding signal came out at 0.00928 E-score.

As to CCTTTACC, the binding signal came out at 0.0699 E-score.

As for CGTCACAA, the binding signal amounted to 0.0469 E-score.

For the sequence CGCGCTCC, the binding signal is -0.00201 E-score.

For the sequence AGTCATAC, the binding signal was -0.0579 E-score.

As to TCGTCAAA, the binding signal is -0.027 E-score.

Consider AGCATCCC, for which the binding signal was -0.203 E-score.

For the sequence AGATGAAT, the binding signal is -0.182 E-score.

As to AACGAAAT, the binding signal is -0.312 E-score.

With CCATTCCG, the binding signal was -0.14 E-score.

In the case of GGTAGAGA, the binding signal is -0.061 E-score.

Consider GAACGGTA, for which the binding signal is -0.0771 E-score.

On to AGGTTTAA, for which the binding signal was found to be 0.0833 E-score.

Regarding GAACCCAA, the binding signal is -0.0198 E-score.

In the case of GAGGTTGC, the binding signal is -0.0848 E-score.
